The record followed here is PubChem BioAssay (NCI).

Some compounds were tested as several samples or in several runs, with calls that do not always agree.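 Each cell line was grown in a 96-well plate and treated with one concentration of compound for 48 hours. Values below 10 were considered active.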 Certain results were filed several times, with different values. The other results are left out here. The source may hold further records. These are repeated runs of one drug, at the concentration stated with the values; each value is one run. Brackets with × say how often a value occurs here.

One assay relates to ACHN renal. Nature of the assay: NCI-60 one-dose screen, 48 h (100 = growth as untreated, 0 = no growth, -100 = all killed). Particulars: 2.5 mM.
In the next assay the test system is CAKI-1 renal. The description is as above. Particulars: 2.5 mM.

Take `O=c1[nH]cc(F)c(=O)[nH]1`: the growth result in the assay on ACHN renal (runs of 1992) was “active: 7.73 (2×), 2.25, 2.85, -4.06, -14.9 (2×), 7.08, 3.15, 6.19, -15.2, -32.6, 1.18, 7.27, 5.02, 2.37, -16.3, -21.6, -9.49, -23.5, -29.5, -9.2, -24.1, -45.2, -57, 6.88, 5.05, -13.4, 1.22, -13.8, -7.22, -16.9, 8.82, -46, -36.9, -51.4, -7.82, 1.08, 7.13, -30.7, 9.61, -34.6, -27.5, -17.4, 8.23, 0.221, -17.9, 8.45, -39.2, -62.3, -19.4, -29.6, 3.1, 7.09, -15, -2.74, -41.5, -21.3, -12.2 (2×), 1.39, -6.18, -33.1, -1.41, -28.7, -36.5, -32.7, -42, -39.9, -2.24, -18.2, -11.5, -29.2, -0.751, -37.8, -44.4, 3.44, -44, -42.7, -30.8, 2.07, -1.92, 3.67, -53.5, 3.54, -36.2, -15.3, 4.46, 5.76% and inactive: 14.6, 10.3, 11.6, 16.9, 11.2 (2×), 18.8, 33.5, 20.6, 11.7, 24, 16.8, 17.1, 15.4, 13.2 (2×), 22.3, 19.5, 86.4, 26.3, 12.2, 15, 11.9, 17.7, 12.1, 11.3, 16.2, 10.2, 30.3, 10.7, 12.4, 15.6%”; with ACHN renal (runs of 1993), “active: -12.9, 7.38, 6.41, 9.4, -25.1, -9.7, 2.72, -39.7, 6.3, -11.9, 3.19, 3.7, 7.85, -7.14, -22.1, 6.35, 0.537, -8.45, 8.17, -6.02, 5.37, -17.8, 5.03, -17.6, 1.72, -15.8, 8.47, 3.4% and inactive: 14.8, 20.5, 10, 18.4, 25, 20, 35.2, 14.9, 11.3, 15.1 (2×), 17.6, 22.6, 85.4, 11.7, 85.7, 13.6, 38.7, 29.1, 12.3, 10.7%”; with ACHN renal (runs of 1994), “active: 5.89, 1.08, -20.5, 3.16, 8.22, -8.58, 7.94, 0.75, -22.6, -13.3, 6.95, 0.865, 4.29, -13.6, -44.2, -1.99, -18.9, 5.75, 1.23, 8.77, 0.146, -0.523, 2.14, -3.47, 0.0859, -6.94% and inactive: 13.8, 14, 10.4, 16.2, 18.3, 11, 14.1, 16.3, 11.3%”; in the assay with ACHN renal (runs of 1995), “active: -0.786, -37, -6.19, 4.81, -13.3, -27.1, 4.85, -17.3, 1.07, -27.4, -34, 9.48, 8.86, 5.34, 7.7, 6.45, -42.2, 8.94, 1.8, 5.09, -4.57, 9.16, 9.24, 0.225, -31.3, -1.51, 9.77, -33.3, -16.3, 4.41% and inactive: 12.4, 21.6, 16.6, 15.8, 18, 25, 10.3, 23.3, 15.3%”; with ACHN renal (runs of 1996), “inactive: 10.4, 16.3 (2×), 13.4, 14.3 (2×), 11.5, 13.1, 17, 11.7, 12.6, 19, 12.7 (2×), 11.3, 13.6, 14.1, 16.5, 15.4, 11.2, 18.2, 12, 22.1, 12.8, 10.5, 15.9, 11.1, 10.3, 24.4, 26.2% and active: 4.61, 6.15, -3.45, -25.1, 8.59, -30.8, 9.58, 9.95 (2×), 3.07, -29.2, 4.68, -6, 5.37, -25.4, 1.2, -58.1, 7.59, 9.19, -15.9, 4.03, -23.2, -2.79, 1.13, 8.77, -2.9%”; in the assay with ACHN renal (runs of 1997), “inactive: 15.3, 15.5, 16.8, 24.4, 10.5, 11.8 (2×), 20.6, 20, 13.4, 13.3, 20.8, 17, 23.3, 23.2, 13.1% and active: 8.52, -16.1, -28.3, 9.48, -6.6, -7.14, -8.79, 1.25, 5.18, 7.05, 5.73, -0.131, 6, 4.27, -3.42, -14.8, 7.98, 9.36, 8.41, 4.45, 4.51, -1.32, 7.4, 3.41, -3.25, -14.7, -5.04, 3.72, 4.84, 9.33%”. Also, the growth result is “active: 6.06, 0.538, 3.12, 1.45, 2.33, 9.64, -8.48, -38.5, -9.36, -13.9, 5.31% and inactive: 15.2, 25.2, 17.9, 15.6, 10, 12, 15.1, 18.3, 13.6, 16.2, 27.5, 21.5%” in the assay on ACHN renal (runs of 1998); “inactive: 22.9% and active: 1.38, 6.72, -44.2, 6.32, -10.6, -100 (4×), -46.3, 3.36, 0.517, -93.5, -61.4, -81.5%” in the assay with ACHN renal (runs of 1999); “active: -95.2, -17.6, -78.4, -91.7%” in the assay on ACHN renal (runs of 2000); “inactive: 19.2, 48.1, 53.2, 13, 18.3, 17.6, 19, 27.9% and active: -3.24, -6.62, 4.75, 6.79, 3.52, -14.4, 1.62, -25.4%” with CAKI-1 renal (runs of 1991); “inactive: 28.8, 27, 27.8, 17.2, 15.3, 14.6, 27.4, 41.9, 14.1 (2×), 18.8, 17.1, 38, 20.5 (2×), 15.6, 19, 10.9, 20.3, 13.9, 13.2, 17.9, 27.1, 20, 28.3, 16.8, 12.6, 10.2, 27.3, 76.7, 23.8, 25.7, 38.5, 28, 33, 11.9 (2×), 11, 20.4, 12.5, 18.6% and active: -28.9, 4.21, -4.98, -14.7, -21.3, -5.1, -7.29, -5.74, -22, 6.87, 1.66, -6.97, -8.29, -32.8, -5.73, -8.89, 2.92, -14.1, -55.4, -55.7, 6.04, -15.9, -5.49, -33.1, -0.243, 4.57, -3.2, -20.1, -34.3, -3.31, 8.88, 8.14 (2×), -34.2, -62.5, -64 (2×), 2.96, 8.83, 6.45, 5.94, -62.6, -22.2, -80.2, -70.6, -21.6, -3.26, -4.74, 1.13, -46.8, -10.1, 6.03, -9.84, -5.34%” in the assay on CAKI-1 renal (runs of 1992); “inactive: 22.7, 21.7, 69.7, 19, 33.7, 22.1, 23.3, 27.7, 14.4, 15, 30, 33.9, 19.8, 18.7, 46.7, 16.9, 90.5, 27.3, 29.2, 14.1, 29.8, 26.2, 13.3, 33.6% and active: 1.39, 6.95, 2.39, 8.86, 8.64, -0.823, 9.68, -12.3, -47.6, -15.3, -2.06, -9.39%” in the assay with CAKI-1 renal (runs of 1993). Also, the growth result is “active: 4.1, -22.7, 3.89, -24.6, -21.3, -10.7, 1.44, -15.7, 4.39, -6.64, -17.2, 4.71, -1.46, -35.9, -20.3, -38.5, -48.5, -15.4% and inactive: 20.4, 12.1, 12.8, 25, 29.5, 17.6, 24.6, 26.2, 16.6, 24.8, 30.5%” with CAKI-1 renal (runs of 1994); “active: -35, -21.6, -22.1, -23.5, 4.73, -18.9, 3.27, -5.9, -3.04, -26.6, -18.2 (2×), 6.85, -20.1, -42.3, -84.5, -9.74, -22.8, -42, -41.1, -86.6, -41.7, -28.4, 0.608, -47.6, 6.08, 0.654, -3.96, -46, -13.1% and inactive: 25.8, 18.2, 35.7, 21.2, 12, 20, 31.8%” in the assay on CAKI-1 renal (runs of 1995); “active: -43.3, 6.6, -39.9, -14.6, -34.7, -32.5, -16.5, -17.9, -42.9, -0.771, -28.5 (2×), -17 (2×), -12, -29.8, -40.5, -24.1, -17.4, -41, -50.1, -57.7, -49, -51.8, -57.8, -69, -83.8, -33.5, -25.4, 5.87, -6.02, -2.49, 0.717, -0.382, -16.4, 5.48, -6.7, 9.68, -4.36, 6.41, -33.7, 5.36% and inactive: 13.6, 10.4 (2×), 15.8, 17.6, 18.1, 17.1, 13.1, 30.8, 11, 27.4, 96.1, 22.7, 20, 46.5, 12.9%” in the assay with CAKI-1 renal (runs of 1996).
